Test results reported in article PMC12136788.
This is one part of the list.

T1: UNK ZnF1-3 (human, UniProt Q9C0B0 31-174)
T1 sequence: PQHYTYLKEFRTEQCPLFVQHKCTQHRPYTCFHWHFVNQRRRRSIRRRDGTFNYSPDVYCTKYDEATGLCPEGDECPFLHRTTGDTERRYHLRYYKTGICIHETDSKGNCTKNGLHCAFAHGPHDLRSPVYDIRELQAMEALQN

B1: chr3:150289932:150289933:+_ENSG00000144895_ENST00000460851|hu_hu|hu_hu_hu_mus_False|8_108 (ssRNA)
RNA: GGGAGUUCUACAGUCCGACGAUCCUUGUAGUUUUUCACAUCCCAUACUUCCAUUUGUCCUCGAAGAUUUCCAAAUCCAGCCAGCACUAAUAUAUGUCCAUGAGGGCUAUAGAAGGCUGCGUUGCGAGGACCAGUUCCAAAGUCCAACAGAGGAUUGAGCAUCA
B2: chr10:121602103:121602104:-_ENSG00000197771_ENST00000369077|hu_mus|FALSE|FALSE (ssRNA)
RNA: GGGAGUUCUACAGUCCGACGAUCGAGGAAUCCAAGCAGCUCUGCUCUGACUGGAGACAACUCAGACAUGAAAUUGGACACAAACUGACAGCUUCUGCUCUCCUCCUUGUUAAGGCAAGUGGGUAACAACGGAUUGAUGUGCUGCAACAGAGGAUUGAGCAUCA
B3: chr4:95690885:95690886:+_ENSMUSG00000028572_ENSMUST00000156910|mus_mus|mus_mus_mus_hu_False|38_58 (ssRNA)
RNA: GGGAGUUCUACAGUCCGACGAUCUUUAGAAAAUGUUAAAUACCAUGCUAAAAUAUUUUCAAAGGCUUAUUUUAUUUUACUAAAAGACACAGGCAAGCAGACACCAUAAGAAUAUAUGAAAAUGAAACUCAACAAUAUAACUGUCAACAGAGGAUUGAGCAUCA
B4: chr22:42032659:42032660:+_ENSG00000196419_ENST00000405878|hu_mus|FALSE|FALSE (ssRNA)
RNA: GGGAGUUCUACAGUCCGACGAUCGUCUUCAUUGGUGAACAGCAUGAUCCUCUUGUGACUCAUCUUGAGCUGGACGUCGCUGAAGAGGUUGGCACAGACCCAGAGCACUUCACUCAAAGAGUAGUCAGACCCAUGGCCAACCGUCAACAGAGGAUUGAGCAUCA
B5: chrX:98862621:98862622:+_ENSMUSG00000034160_ENSMUST00000044475|mus_hu|mus_mus_mus_hu_False|68_78 (ssRNA)
RNA: GGGAGUUCUACAGUCCGACGAUCCUGCAUCUCCUUUAGAGUGUUUCCCAUAUUAGAAUAAGCAUCAGCAAAUGUAGGACUGAUUCGAAUAGCCUCCUUAUAAUGCAUCAGAGCUUCCUGCAGUUUUCCCUGCUGCUGCAGUACCAACAGAGGAUUGAGCAUCA
B6: chr2:24646365:24646366:-_ENSMUSG00000036893_ENSMUST00000102938|mus_mus|FALSE|FALSE (ssRNA)
RNA: GGGAGUUCUACAGUCCGACGAUCUUAUUGAUUUCAUUGAAAACAGAACAAGAAAUGGUCUGAGCCAAAAGACUGCUCAUAAAACUGUCAAAAAACAUUUUAACAGAAAAAAAUAAACAUGACUGCAUUAUGAAUGUUUUAGAACAACAGAGGAUUGAGCAUCA
B7: 128470954_128474126_3443_CDS_ENSMUSG00000014355_ENSMUST00000014499|mouse|control|control (ssRNA)
RNA: GGGAGUUCUACAGUCCGACGAUCAAGGGCCAUAGUUCGCUGACACAACUGGAGCAGUCUGUUUUCCUUUUCUUCAAUGAACUCAUGGUCACUGAGUUCUGGGUACUGCACCACAUUGACACGGACAGGCUGUGCACUUUGAAGCAACAGAGGAUUGAGCAUCA
B8: chr8:47723363:47723364:+_ENSMUSG00000031628_ENSMUST00000093517|mus_mus|FALSE|FALSE (ssRNA)
RNA: GGGAGUUCUACAGUCCGACGAUCGGAGAAGGACUCGAAUUCCGUUGCCACCUUCCUGUUAACGCGAGUGAGAAUGUGCAUAAAUUCUAGCUUGUGCGCGUACAGCUUCAGCAUGCUGCAAAGGGACUGGAUGAACCACGACCCCAACAGAGGAUUGAGCAUCA
B9: chr9:42776281:42776282:-_ENSMUSG00000059495_ENSMUST00000165665|mus_mus|motif|central (ssRNA)
RNA: GGGAGUUCUACAGUCCGACGAUCAAACCUCCUCAAGUCUGCAACUCUCCCACCCACCCCCCAUAGCACCCCCACCACCACGGAGCAUUCCAUUCCUUUGUUCCUAUUUCCUGCUCACUCUGCAGGGAAUAUUUCAUACAAGUGCAACAGAGGAUUGAGCAUCA
B10: 103088726_103090153_1953_CDS_ENSG00000136891_ENST00000374902|human|control|control (ssRNA)
RNA: GGGAGUUCUACAGUCCGACGAUCUGCAGGGAGAACCACCACAGCACCUUCUUGUGGAUCAUAAAUUCGGAGGGCAGUAGCUUGUAAACUUUUUAGUAAUUCUUUAUUUGCUCGUGCUGCAGCGGUAUGAAUGAUAUCGAUAAGCAACAGAGGAUUGAGCAUCA
B11: chr12:42180722:42180723:-_ENSMUSG00000036295_ENSMUST00000043884|mus_hu|mus_mus_mus_hu_True|18_88 (ssRNA)
RNA: GGGAGUUCUACAGUCCGACGAUCCUGUAGGAGAAGAAUCUGUGUGUCGGCAGGCAAUCUGGCUGGGAAAGUUAAAAGACCUAAAUCAUUACAAUCCACUGUAGAUGCUUCCAUAUAGAUGGAUCUCGGUGUAAACCAAGGCCUCAACAGAGGAUUGAGCAUCA
B12: 106707438_106713778_1258_3pUTR_ENSMUSG00000018363_ENSMUST00000103067|mouse|control|control (ssRNA)
RNA: GGGAGUUCUACAGUCCGACGAUCUGAUGUUGCUAAGAUCCCUAGGCACUCGUGGAUCAUGCCAUGUGCUCACACCAGUCUGAGUAUGUAAGAAAUAUACCUGACCCUGCUGCGUUGUCCUUUGUUCAUAGCCUUCCGGUAGGUCAACAGAGGAUUGAGCAUCA
B13: chr14:53324496:53324497:-_ENSG00000073712_ENST00000341590|hu_hu|motif|central (ssRNA)
RNA: GGGAGUUCUACAGUCCGACGAUCAUUGUAAUGCAAAGAGUUGCAUAUUUUAGGCAGACAGUGAUUAUGCUGGUGAAUACGGAAAGUGUAAUACAAUAUGGUGUAAAAAUAAAAACACGAGACAAUAUACAUAACAUGCUUAUUCAACAGAGGAUUGAGCAUCA
B14: chr6:108246082:108246083:-_ENSG00000025796_ENST00000369002|hu_mus|FALSE|FALSE (ssRNA)
RNA: GGGAGUUCUACAGUCCGACGAUCUGUUUUGGAAACUUUGUAUGCAAGAAAUAAGAACAGUGCCCAUCCUGCAAGCAGAACUAUUUUCUUUACUGUAGGAAUAAUAUUUGGCUGGGGUUUUAAUAACCGUAAACGAUACCACAUCAACAGAGGAUUGAGCAUCA

The binders below were run against T1, UNK ZnF1-3 (assay: nsRBNS (natural sequence RNA bind-n-seq); RBNS binding buffer (assumed for nsRBNS): 25 mM Tris pH 7.5, 150 mM KCl, 3 mM MgCl2, 0.01% Triton X-100, 500 ug/ml BSA, 20 U/ml SUPERase-In, 4 C; UNK is unkempt and MSI1 is Musashi-1; names of the RNAs are library labels; protein concentration not given here; high values mean tight binding).
B1 was tested, and the binding signal was 1.01 enrichment R.
Binder B2 has a binding signal of 1.47 enrichment R.
B3 showed a binding signal of 2.48 enrichment R.
B4 showed a binding signal of 1.1 enrichment R.
For B5, the binding signal was 1.19 enrichment R.
For B6, the binding signal was 0.566 enrichment R.
Binder B7 has a binding signal of 0.731 enrichment R.
With B8 the binding signal was 1.22 enrichment R.
B9 showed a binding signal of 0.406 enrichment R.
For B10, the binding signal was 1.16 enrichment R.
In the case of B11, the binding signal is reported as 0.868 enrichment R.
B12 was tested, and the binding signal was 0.708 enrichment R.
In the case of B13, the binding signal is reported as 1.19 enrichment R.
For B14, the binding signal was 0.751 enrichment R.
